{"source": "paper PMC11911400", "about": "“Mechanism of ASF1 engagement by CDAN1” (Nature Communications, 2025)", "key": {"[1]": {"target": "T1, HMHA2* BDA2* ST-CDAN1 (human) (UniProt Q8IWY9)", "T1 sequence": "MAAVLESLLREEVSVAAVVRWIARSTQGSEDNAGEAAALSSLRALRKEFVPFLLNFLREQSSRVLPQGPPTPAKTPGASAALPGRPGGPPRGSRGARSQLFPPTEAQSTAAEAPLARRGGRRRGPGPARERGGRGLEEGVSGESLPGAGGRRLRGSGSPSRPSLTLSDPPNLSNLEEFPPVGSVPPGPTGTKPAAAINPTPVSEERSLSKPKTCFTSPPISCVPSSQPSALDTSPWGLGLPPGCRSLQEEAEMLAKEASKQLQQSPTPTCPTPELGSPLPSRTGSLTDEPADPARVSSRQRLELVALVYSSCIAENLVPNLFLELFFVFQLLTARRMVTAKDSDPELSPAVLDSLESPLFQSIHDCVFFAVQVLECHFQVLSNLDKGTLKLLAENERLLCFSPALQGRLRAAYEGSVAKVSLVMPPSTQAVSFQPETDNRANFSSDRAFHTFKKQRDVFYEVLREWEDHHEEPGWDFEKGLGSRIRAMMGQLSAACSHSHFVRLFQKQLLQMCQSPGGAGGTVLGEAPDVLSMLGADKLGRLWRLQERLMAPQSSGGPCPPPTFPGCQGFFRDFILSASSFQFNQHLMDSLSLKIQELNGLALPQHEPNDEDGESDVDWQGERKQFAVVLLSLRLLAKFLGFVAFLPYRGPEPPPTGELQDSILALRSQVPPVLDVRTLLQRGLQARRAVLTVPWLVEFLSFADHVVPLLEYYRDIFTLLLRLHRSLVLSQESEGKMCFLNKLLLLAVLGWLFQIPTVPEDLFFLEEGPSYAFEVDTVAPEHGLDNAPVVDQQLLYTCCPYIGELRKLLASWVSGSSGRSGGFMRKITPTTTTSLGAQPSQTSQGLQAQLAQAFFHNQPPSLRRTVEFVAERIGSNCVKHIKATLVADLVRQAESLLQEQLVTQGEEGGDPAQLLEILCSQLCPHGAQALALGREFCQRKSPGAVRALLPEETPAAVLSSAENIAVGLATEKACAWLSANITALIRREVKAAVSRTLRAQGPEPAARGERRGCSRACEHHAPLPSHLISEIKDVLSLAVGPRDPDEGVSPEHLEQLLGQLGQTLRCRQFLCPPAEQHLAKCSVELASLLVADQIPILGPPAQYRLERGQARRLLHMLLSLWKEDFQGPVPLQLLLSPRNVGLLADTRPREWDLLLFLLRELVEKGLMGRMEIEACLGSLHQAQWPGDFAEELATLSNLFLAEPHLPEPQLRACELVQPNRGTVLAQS", "assay": "pull-down; Strep-Tactin pulldown of transiently transfected ST-CDAN1 variants from Flp-In 293 T-REx lysates; endogenous ASF1A, ASF1B and CDIN1 detected by immunoblotting; IP buffer with 1% Triton X-100, 1 hr at 4 °C"}, "[2]": {"target": "T2, Strep-CDAN1 HMHA2* (R251A/R255A/R258A) (human) (UniProt Q8IWY9)", "T2 sequence": "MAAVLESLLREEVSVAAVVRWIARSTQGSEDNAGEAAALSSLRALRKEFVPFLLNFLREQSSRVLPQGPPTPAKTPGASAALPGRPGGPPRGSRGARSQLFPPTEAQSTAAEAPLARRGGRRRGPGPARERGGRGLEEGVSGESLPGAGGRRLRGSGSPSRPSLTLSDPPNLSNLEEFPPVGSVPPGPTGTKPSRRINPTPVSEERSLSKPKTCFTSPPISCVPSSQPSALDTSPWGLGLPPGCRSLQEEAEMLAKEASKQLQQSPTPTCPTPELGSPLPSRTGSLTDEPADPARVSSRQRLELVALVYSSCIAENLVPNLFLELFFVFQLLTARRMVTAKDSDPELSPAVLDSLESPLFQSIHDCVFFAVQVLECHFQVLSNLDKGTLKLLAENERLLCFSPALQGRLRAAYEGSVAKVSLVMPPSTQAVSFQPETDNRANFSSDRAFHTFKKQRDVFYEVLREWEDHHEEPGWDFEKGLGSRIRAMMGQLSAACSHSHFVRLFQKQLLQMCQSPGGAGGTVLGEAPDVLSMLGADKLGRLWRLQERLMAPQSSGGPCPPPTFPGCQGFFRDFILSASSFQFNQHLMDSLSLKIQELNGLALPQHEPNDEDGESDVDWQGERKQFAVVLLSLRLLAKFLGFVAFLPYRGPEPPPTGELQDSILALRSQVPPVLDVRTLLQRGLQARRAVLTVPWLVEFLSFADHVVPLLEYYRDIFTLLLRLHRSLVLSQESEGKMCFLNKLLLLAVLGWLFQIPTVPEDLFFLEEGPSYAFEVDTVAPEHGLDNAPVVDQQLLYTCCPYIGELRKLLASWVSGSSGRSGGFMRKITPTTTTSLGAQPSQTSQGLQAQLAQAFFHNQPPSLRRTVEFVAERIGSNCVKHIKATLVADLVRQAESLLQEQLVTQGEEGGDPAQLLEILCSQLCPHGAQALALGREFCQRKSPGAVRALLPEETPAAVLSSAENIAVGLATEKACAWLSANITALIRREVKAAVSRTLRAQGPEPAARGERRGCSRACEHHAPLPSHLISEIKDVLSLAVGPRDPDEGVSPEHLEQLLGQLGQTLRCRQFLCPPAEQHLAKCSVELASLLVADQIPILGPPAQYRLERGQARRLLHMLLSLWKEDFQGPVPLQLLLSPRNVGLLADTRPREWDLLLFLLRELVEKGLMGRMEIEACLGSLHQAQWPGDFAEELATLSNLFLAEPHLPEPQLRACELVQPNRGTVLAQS", "assay": "pull-down; Strep-Tactin pulldown of transiently transfected ST-CDAN1 variants from Flp-In 293 T-REx lysates; endogenous ASF1A, ASF1B and CDIN1 detected by immunoblotting; IP buffer with 1% Triton X-100, 1 hr at 4 °C"}}, "note": "No constants are given. Whether binding was seen depends on the method and setting. In cells and extracts the contact can be indirect. Some results given as binding are weak or reduced against the parent protein; the word gives no strength."}
{"binder": "FLAG-tagged CDIN1 (F-CDIN1) (natural protein, UniProt Q9Y2V0 1-281, looked up, C15orf41); cDNA synthesized by IDT; source: Expi293, transiently transfected, in lysate and purified in complexes (anti-FLAG, Strep-Tactin); not shown: 3xFLAG, N-terminal, kept) MILTKAQYDEIAQCLVSVPPTRQSLRKLKQRFPSQSQATLLSIFSQEYQKHIKRTHAKHHTSEAIESYYQRYLNGVVKNGAAPVLLDLANEVDYAPSLMARLILERFLQEHEETPPSKSIINSMLRDPSQIPDGVLANQVYQCIVNDCCYGPLVDCIKHAIGHEHEVLLRDLLLEKNLSFLDEDQLRAKGYDKTPDFILQVPVAVEGHIIHWIESKASFGDECSHHAYLHDQFWSYWNRFGPGLVIYWYGFIQELDCNRERGILLKACFPTNIVTLCHSIA", "values": [{"measurement": "binding", "setting": "[1]", "value": "binds"}, {"measurement": "binding", "setting": "[2]", "value": "binds"}]}
